# Assay results taken from the supplement of paper PMC11417369.
# This is one part of the list.
# Test system: PfAP2-HC AP2 domain (GST-tagged)
# Experiment: gcPBM binding intensity (ln(normalized median fluorescence intensity)); higher = stronger DNA binding
# Procedure, shortened: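 An Agilent 4 × 180k array carrying primer-extended double-stranded 36-bp intergenic genomic probes and negative controls received GST-tagged P. falciparum DNA-binding domains expressed in E. coli, about 25 μg on average, for 1 h. The binding buffer contained 1× PBS, 1% milk, 0.2 mg/ml BSA, 0.5% salmon testes DNA and 0.03% Triton X-100. Binding intensity is the top Masliner-normalised natural-log median intensity across replicate spots of either probe orientation, read after Alexa488 anti-GST antibody staining and a 488 nm scan.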
row,Sequence,gcPBM binding intensity (ln)
1,TATATATAATATATATGTACGTATATATATAATATA [XGTACX_site8383],9.57
2,TTAACATAAATATATACACACCAATGATGGCATTTA [CACACA_site4952],9.62
3,TTTATTTTCCAAAGGGTGCACATAGTTGAAACGATA,9.56
4,AATAAAGCAATAAATACACACATATTTATATTTATA [CACACA_site7390],9.84
5,TTTTGGATTGAGGACCTTTTTATAGAATTATGTTTT [TGCATGCA_negctrl_site544],9.62
6,ATATATAATTTTTACACACGCAATAAATATATATAT [CACACA_site4283],9.73
7,TTTATTATATTTTTTTGTACATATTGATGTATATAA [XGTACX_site6527],9.6
8,GCAAATCTTATATGAAGTACATATCTTATAAATAAA [XGTACX_site6903],9.43
9,AGCAAAATGAAATAAATTGGAAAATATTACTGAACG [CACACA_negctrl_site1433],9.59
10,AACAAAGGATTTATATATACATACATACATACATAA [GTGCAC_negctrl_site469],9.73
11,ATAAAAAAAAAAAGAAGTACATGTATTAAAATTTAT [XGTACX_site3927],9.88
12,TGAATTTACAAAATCATGCACTTAATTACAGAATAA,9.45
13,CGAACACAAACACAAACACACATCATATATATATAT [CACACA_site4857],9.96
14,ATTTTGGAAATAATATGTACATATACATAATATATA [XGTACX_site4177],9.59
15,AATATACAAAAAAAAAAAAAAAAAAAAAAGATGGAA [TGCATGCA_negctrl_site550],9.56
16,TTAATATTAATTATATGTACATATAATATATATATA [XGTACX_site1757],9.53
17,ATCTTTTCATATTGCTGTACAAATTATTTTCATTCG [XGTACX_site492],9.81
18,GAGAAATGGAGACACACACACATATTATATATATAT [CACACA_site1532],10.3
19,TGTATAAAATTCCATTGTACATATTATTTTACGACA [XGTACX_site7764],9.6
20,ATGTTAAACAAATCTATACACACGTATATGACAAAA [CACACA_site1783],9.71
21,GGTACATACAGACACACACACAAAAAAAAAAAAATA [CACACA_site6844],11.2
22,AAAAGTCTTCAAATTTGTACATATATATATATATAT [XGTACX_site3404],10.1
23,TATTTAAAAAATAATACACACATAATATAACAAAAT [CACACA_site3174],10.2

row,Sequence,gcPBM binding intensity (ln)
1,TGTGTATAAATATACACACACATATAAATATTTTAA [CACACA_site7005],9.93
2,ACATATAATATAAATTGTACATATAAATATATTATT [XGTACX_site4268],9.61
3,TTTACAACATCAAAATGTACGCATTATTATTATTAA [XGTACX_site3017],9.44
4,TGGAGGTCAGTTCACAGTACCCAGGAAATCTGCGGA [XGTACX_site2556],9.25
5,TTCACTTTTTTTTTTTTTTTTTTTTTTTTTTTTATT [GTGCAC_negctrl_site350],9.36
6,ATGCATAATATACTCTTACACACCATTTCTATATAC [CACACA_site1461],10
7,TATAACATAGGACACACACACATACATACACAAAAA [CACACA_site5062],10.7
8,TCATATATTTTATACATACACACATATATATATTTT [CACACA_site3941],10
9,ACGTTATACACAGTACGTACATAACTATCTAAATGT [XGTACX_site5068],9.88
10,TTTTTTTTTTTTTTTTTTTTTTTTTTGTTCAGGCCT [GTGCAC_negctrl_site143],8.84
11,ACGTAATAAAATAGTTGTACAACTTTTTATAATATA [XGTACX_site4393],9.63
12,TCATAAATATGAAAAAGTACAAAGGTAGATTTTGAA [XGTACX_site4535],9.71
13,TATATATATATTATATGTACGTATGTATGTATATAT [XGTACX_site6451],9.69
14,AAACGATTAATGTGTACACACATAGTTATAAACCTA [CACACA_site2110],10
15,ACAAAGTTATAATTCTTGCACTTTAAGGTTCATTTA,9.61
16,CGTGAATATATGATATGTACTTATAAAAATTTGTGC [XGTACX_site5480],9.55
17,ATAAATATCTAGGGTTCACACATTATATATCTGTAT [CACACA_site5702],9.75
18,GGTATACACAAGTATACACACATATATATATATATA [CACACA_site9063],9.84
19,TTTTCCTCTTAAAATATACACACTGATTTAAGAAAA [CACACA_site3301],9.29
20,TTCATTTTTTGCTTTCAACACACATACAATATATAT [CACACA_site9369],10
21,AGTAACAAAAGAAAAAAATATGCAAACATATATATA [XGTACX_negctrl_site468],9.65
22,AGAAATATATATATATATATATATATATATATATAT [TGCATGCA_negctrl_site375],10.2
23,TTTTTCTTTTTTTCTTTTTTTATAAAACTTAATTGT [CACACA_negctrl_site384],9.55

row,Sequence,gcPBM binding intensity (ln)
1,AAAAAAAAAAAAAAATATATATATATATACATACAT [CACACA_negctrl_site317],9.67
2,TATTAATTATATTTATGTACATAATCATATTATTAT [XGTACX_site7938],9.94
3,GGACACCTTCAAAACACACATACAAATAAATAGAAA [CACACA_site3305],9.71
4,ATATAAATATATATATGTACATAATATATTATGTTT [XGTACX_site2806],9.71
5,AATTTAACCACTAAAAGTACACACATATATACATAT [XGTACX_site8352],10.1
6,TCCTTTTTACTACTAGTGCATTATTTACAAGGTCCG [GTGCAC_site9441],9.47
7,TAGTTTTTTATATATTGTACTTAGAATATATTATAT [XGTACX_site3662],9.62
8,ATATATATAAAATATTATATTAAAAAAAATAAAATA [GTGCAC_negctrl_site87],9.59
9,AGGATAATATACAAAAGTACATAAAACTAAAAAAAC [XGTACX_site605],9.88
10,AACATATATTTTGAAACACACACATATATAATATAC [CACACA_site8301],10.1
11,AAAGAAAGAAAGAATACACACACACCGATATATATA [CACACA_site9246],10.3
12,TTTTATATATAATTCACACAAAAAAGATACATAAGA [CACACA_site5332],9.55
13,TAAGCAAAAATAATTACACACAAATTTATAAAAAAT [CACACA_site3377],9.9
14,ATTTTGTTTTTTTTTGCACACCATAAGGAGTGTAGG [CACACA_site1414],9.74
15,ATAAAAATATAATTGAGTACATATGAATAGTCCTAT [XGTACX_site6281],9.57
16,ACAACACATATTCATCGTACATGTATTAGGAAGACA [XGTACX_site1859],9.8
17,TATATAAAAATATGTTGTACGCATTTATAAATATAT [XGTACX_site3758],9.55
18,ATTTTTTTTTTTTTTTTTTTTTTTTTTGAATTCACA [CACACA_negctrl_site982],9.2
19,TATTTTTATTTATAACGTACGAAAAATGTATATAAT [XGTACX_site703],9.5
20,GGTGTATGTTAAAGGAGTACATATATATATATATAT [XGTACX_site7727],9.69
21,CATACACATTTCATATGTACATAGATTGAAGGGAAG [XGTACX_site116],9.88
22,TAGTATTTATATGTTATATATATAAAATAATACAGT [XGTACX_negctrl_site571],9.75
23,ATATCTAATAAAAATACACACACATATGATTTGTGA [CACACA_site8558],10

row,Sequence,gcPBM binding intensity (ln)
1,TATATAGAATTATATGCATGTTCAAAAAAATACAAC [TGCATGCA_site431],9.8
2,TTCTATTTTTTAAAAGTGCATATTATAAATATATAT,9.52
3,AATAGTTCTTGAACGTGTACATAAAATATAATTTAC [XGTACX_site11],9.63
4,GAAATCTAAATAGAAACACACATATATAAATAAATA [CACACA_site7762],9.86
5,TAAGGAAAAAGAAAAAGTACATTATATAATAAATAG [XGTACX_site3282],9.65
6,CAAATATATGTTTTCACACACAAAAGAAATGAAACC [CACACA_site2162],9.92
7,AAAAAAAATAAAATGAATAAATAAGAATTACATATT [CACACA_negctrl_site863],9.56
8,GGATAGATCATTTACACACACAAAAAAAAAAAAAAA [CACACA_site2139],9.81
9,ATAATATATTATTATAGTACTTTATTTTATTTTATG [XGTACX_site2387],9.71
10,AATATATATATACATACATGCATACATATATATATA [TGCATGCA_site784],9.67
11,AAAAAGAAGATATATACACACCAAAAAAAAAAAAAA [CACACA_site7471],9.61
12,ATATGATGTAAAAGCACACATATATATATATATATA [CACACA_site4018],9.69
13,TACTATAAAATGGAATGTACACATAAATATATCTAA [XGTACX_site6137],9.64
14,GTTTATAACTATGTGTGTACACATTAATCGTTTTTC [XGTACX_site4364],10.1
15,AATATATTTATATAGTGTACATTTTTTATATATGTA [XGTACX_site8142],9.55
16,TATTAATTTTTATTATGTACATAAATAATTTATATT [XGTACX_site5456],9.63
17,CACATACACATACACATACACACGCATAGAAACATA [CACACA_site2136],10.5
18,TTGTATAAATATGTATGTATATAATATATGTAAAGA [TGCATGCA_negctrl_site93],9.78
19,AAATCGTGTACATTGACACACATAATTTTTTTTATA [CACACA_site2463],9.68
20,TAAAAAACTTCGTGTTCACACATGTACTATATTATT [CACACA_site4796],9.73
